Here are results for 153 variants from a collection of fitness landscapes (doi:10.1126/science.1257360).

B1: PhoQ; a variant is named by its letters at X, in order, P23837 (parent)
chain: MKKLLRLFFPLSLRVRFLLATAAVVLVLSLAYGMVALIGYSVSFDKTTFRLLRGESNLFYTLAKWENNKLHVELPENIDKQSPTMTLIYDENGQLLWAQRDVPWLMKMIQPDWLKSNGFHEIEADVNDTSLLLSGDHSIQQQLQEVREDDDDAEMTHSVAVNVYPATSRMPKLTIVVVDTIPVELKSSYMVWSWFIYVLSANLLLVIPLLWVAAWWSLRPIEALAKEVRELEEHNRELLNPATTRELTSLVRNLNRLLKSERERYDKYRTTLTDLTHSLKTPLXXLQXXLRSLRSEKMSVSDAEPVMLEQISRISQQIGYYLHRASMRGGTLLSRELHPVAPLLDNLTSALNKVYQRKGVNISLDISPEISFVGEQNDFVEVMGNVLDNACKYCLEFVEISARQTDEHLYIVVEDDGPGIPLSKREVIFDRGQRVDTLRPGQGVGLAVAREITEQYEGKIVAGESMLGGARMEVIFGRQHSAPKDE

Some of the results follow.

In the assay the parent is B1. The assay can be described thus: enrichment ratio after two sorts for PhoP signalling (ratio (wild type AVST 3.29)); higher = more functional. The following applies: with PhoP (E. coli).
Take EMCR: the enrichment ratio is at most 0.25. Consider VSIY, for which the enrichment ratio was at most 0.25. With NTST, the enrichment ratio was at most 0.25. The figure for YILA is 0.425; for LLNE it is at most 0.25; for RAAF it is at most 0.25. The figure for YEVF is at most 0.25; for FWHT it is at most 0.25. The value for QKLE was at most 0.25. As for RMET, the enrichment ratio is at most 0.25. The figure for LTMW is at most 0.25; for VQMD it is at most 0.25; for LYYV it is at most 0.25. As to FENF, the enrichment ratio was at most 0.25. The figure for THCH is 5.09; for NSWA it is at most 0.25. The figure for TTYD is at most 0.25; for SQQP it is at most 0.25. The value for IGMW was at most 0.25; that for FAQV was at most 0.25. With AFDN, the enrichment ratio is at most 0.25.

On to AMKE, for which the enrichment ratio is at most 0.25. For RFRW, the enrichment ratio is at most 0.25.

Take WTAI: the enrichment ratio is at most 0.25. The value for KFIP was at most 0.25; that for HLTK was at most 0.25; that for YTCN was at most 0.25. The figure for VWYY is at most 0.25; for TLTP it is at most 0.25; for NSTN it is at most 0.25.

With WRAI, the enrichment ratio is at most 0.25. The value for YCLK was 1.72.

Regarding LAKW, the enrichment ratio is at most 0.25. The value for HQAF was at most 0.25; that for PMDH was at most 0.25. The value for RIEM was at most 0.25; that for TCQG was 3.14; that for KREY was at most 0.25. The figure for IKAF is at most 0.25; for PIRL it is at most 0.25.

For YVLA, the enrichment ratio was 0.29. As for ALSH, the enrichment ratio worked out at 2.51. Consider YRFL, for which the enrichment ratio was at most 0.25. The value for GLTY was 0.468. With GSYI, the enrichment ratio was at most 0.25. The value for GEFA was at most 0.25.

Turning to GWLW, the enrichment ratio is at most 0.25. For the variant IECV, the enrichment ratio is at most 0.25. The value for EHFC was at most 0.25. The figure for MCPT is at most 0.25. The figure for HFGC is at most 0.25. Turning to MDVC, the enrichment ratio was at most 0.25. INSW: the enrichment ratio was at most 0.25. With RPCN, the enrichment ratio is at most 0.25. The value for EMDI was at most 0.25; that for EEFP was at most 0.25; that for NLGM was at most 0.25.

For NFIH, the enrichment ratio is at most 0.25. The value for FDVI was at most 0.25. The figure for TFPV is at most 0.25; for PIDF it is at most 0.25; for VLFG it is at most 0.25. The figure for KNTK is at most 0.25; for NWVD it is at most 0.25; for SCRC it is at most 0.25. Consider TSWT, for which the enrichment ratio amounted to 13.4. GSGE: the enrichment ratio is at most 0.25.

On to TTKF, for which the enrichment ratio is at most 0.25. The value for SGCF was 7.09. With FTDS, the enrichment ratio was at most 0.25. The value for IGQN was at most 0.25; that for DCDW was at most 0.25. GSRT: the enrichment ratio was at most 0.25. With VCRG, the enrichment ratio was at most 0.25.

ALQK: the enrichment ratio is at most 0.25. The value for ANKC was at most 0.25. The figure for AMLL is 14.2; for TRNC it is at most 0.25. The value for YQLN was at most 0.25; that for NAGG was at most 0.25; that for MNWK was at most 0.25. Regarding GPAY, the enrichment ratio was at most 0.25. The figure for HWRD is at most 0.25; for RAHG it is at most 0.25. Consider ECDQ, for which the enrichment ratio is at most 0.25.

Take HWKA: the enrichment ratio is at most 0.25.

On to HRPM, for which the enrichment ratio was at most 0.25. Take WREM: the enrichment ratio was at most 0.25.

Consider PCTH, for which the enrichment ratio was at most 0.25. The value for HHCW was at most 0.25; that for IMEV was at most 0.25.

As for VCWM, the enrichment ratio was at most 0.25.

With WYNA, the enrichment ratio is at most 0.25.

Regarding INIH, the enrichment ratio is at most 0.25. The value for HHFT was at most 0.25; that for SRKH was at most 0.25. As to HPSN, the enrichment ratio is at most 0.25. Take MEVD: the enrichment ratio was at most 0.25. As to DTTS, the enrichment ratio was at most 0.25.

Turning to TDPR, the enrichment ratio was at most 0.25. The value for SSNE was at most 0.25.

Regarding DLEY, the enrichment ratio is at most 0.25.

On to SYKP, for which the enrichment ratio is at most 0.25.

Turning to DHDC, the enrichment ratio was at most 0.25. As to SERL, the enrichment ratio is at most 0.25.

On to EVRK, for which the enrichment ratio was at most 0.25. On to SHCT, for which the enrichment ratio was at most 0.25. With FLAE, the enrichment ratio was at most 0.25. The figure for TMVY is at most 0.25; for YTSD it is at most 0.25. The value for WYAI was at most 0.25; that for CIIC was at most 0.25; that for WAWY was at most 0.25.

With GQRT, the enrichment ratio is at most 0.25. The value for QLDR was at most 0.25. The value for FELA was 2.53.

Turning to IREE, the enrichment ratio is at most 0.25.

As for YSYK, the enrichment ratio is at most 0.25. Take KEMR: the enrichment ratio is at most 0.25. In the case of PMYC, the enrichment ratio was at most 0.25.

Turning to RVRK, the enrichment ratio was at most 0.25.

Take SQWC: the enrichment ratio was at most 0.25.

Regarding EAKF, the enrichment ratio was at most 0.25. In the case of FVKN, the enrichment ratio is at most 0.25. The figure for AEYT is 2.16.

For SQSD, the enrichment ratio was at most 0.25. The value for CSFL was at most 0.25; that for TRNP was at most 0.25; that for VTMK was at most 0.25. The value for PITV was at most 0.25. For KVMA, the enrichment ratio is at most 0.25. The value for FHVQ was at most 0.25; that for SKPV was at most 0.25; that for LASY was at most 0.25. The figure for VGFW is at most 0.25. The value for WIKA was at most 0.25; that for DMQH was at most 0.25. As to TGLQ, the enrichment ratio amounted to 9.97. The figure for QGLI is 13.3; for SMQR it is at most 0.25. The figure for GECS is 7.23; for AIPD it is at most 0.25.

For VYKS, the enrichment ratio was at most 0.25. The value for RQSS was at most 0.25; that for FVGK was at most 0.25; that for GYTV was at most 0.25. The figure for QYFG is at most 0.25. The value for VSVW was at most 0.25; that for HMCM was at most 0.25; that for LSSG was at most 0.25. Regarding HQVF, the enrichment ratio was at most 0.25.

Turning to FMTQ, the enrichment ratio is at most 0.25. The value for DQDL was at most 0.25.
